Molecular target: human carbonic anhydrase IX (CAIX) on renal cell carcinoma cells (human, UniProt Q16790)
Assay: cell-based or functional assay

IFN-γ ELISPOT spots with sk-rc-52 cells, fold over CAIX- sk-rc-59 cells [fold] | IFN-γ ELISPOT spots with sk-rc-52 cells, fold over G36-CD8z CART cells [fold] | IFNγ secretion with sk-rc-52 cells, fold over G36-CD8z CART cells [fold] | IL-2 secretion with sk-rc-52 cells, fold over G36-CD8z CART cells [fold] | IL-17 secretion with sk-rc-52 cells, fold over G36-CD8z CART cells [fold] | T cell proliferation after two weeks with sk-rc-52, tumor:T cell 1:4 [fold] | T cell proliferation after two weeks with sk-rc-52, tumor:T cell 1:8 [fold] | Binder
12 | 6 | 2.3 | 6.5 | 4 | 19 | 30 | G36-CD28z CAR (scFvG36-CD28-TCRζ, 2nd generation anti-CAIX CAR) on transduced human T cells (other) EVQLVQSGGGVVQPGGSLRLSCAASGFPFSSYAMSWVRQAPGKGLEWVSAISANGGTTYYADSVKGRFTISRDNSKNTLYLQMNSLRAEDTAVYYCANNGNYRGAFDIWGQGTMVTVSSGGGGSGGGGSGGGGSQSVLTQPPSVSGAPGQRVTISCTGSSSNIGAGFDVHWYQQLPGTAPKLLIYGNTNRPSGVPDRFSGSKSGTSASLAITGLQAEDETDYYCQSYDSRLSAWVFGGGTKLTVLGTETSQVAPAGGGGSIEVMYPPPYLDNEKSNGTIIHVKGKHLCPSPLFPGPSKPFWVLVVVGGVLACYSLLVTVAFIIFWVRSKRSRLLHSDYMNMTPRRPGPTRKHYQPYAPPRDFAAYRS[about 120 residues left out]
 |  |  |  |  | 4 | 17 | G36-CD8z CAR (scFvG36-CD8-TCRζ, 1st generation anti-CAIX CAR) on transduced human T cells (other) EVQLVQSGGGVVQPGGSLRLSCAASGFPFSSYAMSWVRQAPGKGLEWVSAISANGGTTYYADSVKGRFTISRDNSKNTLYLQMNSLRAEDTAVYYCANNGNYRGAFDIWGQGTMVTVSSGGGGSGGGGSGGGGSQSVLTQPPSVSGAPGQRVTISCTGSSSNIGAGFDVHWYQQLPGTAPKLLIYGNTNRPSGVPDRFSGSKSGTSASLAITGLQAEDETDYYCQSYDSRLSAWVFGGGTKLTVLGTETSQVAPAGGGGSPTTTPAPRPPTPAPTIASQPLSLRPEACRPAAGGAVHTRGLDFACDIYIWAPLAGTCGVLLLSLVITLYCNH[about 120 residues left out]
